The values that follow come from ChEMBL document CHEMBL4888484, “Replenishing the malaria drug discovery pipeline: Screening and hit evaluation of the MMV Hit Generation Library 1 (HGL1) against asexual blood stage Plasmodium falciparum ,using a nano luciferase reporter read-out” (2022).

The whole screen tested about 150,000 compounds, of which about 540 (0.36%) showed an effect of 50% or more. The list shows a part of the results.

In the experiment the test system is Plasmodium falciparum. The experiment is described as follows: Primary screen in NF54 nanoGlo assay, in single point, at 2uM, 72h; a lower Z score goes with more inhibition. The experiment is classed as functional, Erythrocyte. As to conditions: timepoint 72 hour.
For `Cn1c(C(C)(C)NCc2cc(O)cc(Cl)c2)nc2ccccc21`, the “% Inhibition” value turned out to be 2% and the Z score is listed as -0.38.

Take `COCCn1c(C)cc(=O)c(C(=O)NCCc2nc3ccccc3[nH]2)c1CC1CCCC1`: the “% Inhibition” value was found to be 19% and the Z score is recorded as -2.44.

As for `O=C(CCN1CCN(Cc2ccccc2)CC1)Nc1ccc2c(c1)CCC2`, the “% Inhibition” value was 4% and the Z score is reported as -0.63.

Take `COc1ccccc1/N=C(/NC(=O)c1ccccc1)N1CCN(CCC#N)CC1`: the “% Inhibition” value is on record as -1% and the Z score stood at 0.22.

`CCN(CC)c1nc(NCCO)c2ccccc2n1`: the “% Inhibition” value is -13% and the Z score came to 1.83.

On to `CC(C)n1nnnc1CN[C@H]1CCCC1(C)C`, for which the “% Inhibition” value amounted to 1% and the Z score is reported as -0.15.

With `COc1ccccc1NC(=O)Cn1nc2c(C)c(C)nc(C)n2c1=O`, the “% Inhibition” value was -12% and the Z score came to 2.21.

For the compound `CC1CCC(NC(=O)CN(C)C2CCCCC2)CC1` (stereo unspecified), the “% Inhibition” value is given as -8% and the Z score is reported as 1.06.

Regarding `Cc1cnn([C@@H](C)c2nc(CC3CC3)nn2C(C)(C)C)c1`, the “% Inhibition” value was 9% and the Z score is -1.24.

On to `COCc1ccc(CNCC(C)(C)S(C)(=O)=O)cc1`, for which the “% Inhibition” value is -3% and the Z score stood at 0.37.

On to `Cc1oncc1CNC(=O)c1cccc(Cl)c1`, for which the “% Inhibition” value is on record as -8% and the Z score is reported as 1.29.

As to `CN1CCN(C(=O)c2ccc3ncccc3c2)CC1=O`, the “% Inhibition” value is reported as -12% and the Z score turned out to be 1.74.

As for `O=C(c1cc(-n2ccnc2)ccn1)N1CCn2c1nc1ccccc12`, the “% Inhibition” value was -15% and the Z score was 2.27.

On to `COc1ccc(CC(=O)N2CCN(S(=O)(=O)c3cc4c(cc3C)NC(=O)CO4)CC2)cc1`, for which the “% Inhibition” value is on record as 11% and the Z score is recorded as -1.08.

Turning to `CN(C)c1cccc(CCC(=O)N2CCC[C@H](N3CCCC3)CC2)c1`, the “% Inhibition” value is listed as -11% and the Z score is reported as 1.29.

Turning to `CC(NC1CC(NC(=O)OC(C)(C)C)C1(C)C)c1nccn1C` (stereo unspecified), the “% Inhibition” value was found to be 4% and the Z score is -0.75.

As to `Clc1cnn(CCN2CCC[C@H](c3nnc4ccccn34)C2)c1`, the “% Inhibition” value is recorded as -1% and the Z score amounted to 0.19.

`Cn1ccnc1C(=O)N[C@H]1CC(=O)N(c2ccc(F)cc2)C1`: the “% Inhibition” value is reported as -6% and the Z score worked out at 0.89.

Consider `COc1cc(CN(C)CCc2ncc(C)s2)cc2c1OCCO2`, for which the “% Inhibition” value is 3% and the Z score is reported as -0.35.

Consider `Cc1ccncc1C(=O)N1CCO[C@H](c2cnn(C)c2)C1`, for which the “% Inhibition” value is recorded as 1% and the Z score is -0.13.

For `CC(C)Cc1nsc(N2CCOC3CCN(C)CC32)n1` (stereo unspecified), the “% Inhibition” value is reported as 39% and the Z score was -1.25.

`CCc1ccccc1NC(=O)c1nn(CCOC)c2c1CNCC2`: the “% Inhibition” value was -15% and the Z score was 2.13.

Turning to `CC(C)(C)c1cn2nc(N3CCS(=O)(=O)CC3)sc2n1`, the “% Inhibition” value is reported as -3% and the Z score is 0.39.

As for `COc1cc(C[C@@H]2C(=O)Nc3cc(Cl)ccc32)cc2c1OCCO2`, the “% Inhibition” value is -5% and the Z score stood at 0.66.

On to `COc1cccc(NC(=O)c2cc3nccc(-c4cnn(C)c4C)n3n2)c1`, for which the “% Inhibition” value is recorded as -2% and the Z score is 0.2.

Consider `Cc1noc([C@]23CN(Cc4ccccc4)CC[C@H]2CN(C(=O)C(C)C)C3)n1`, for which the “% Inhibition” value came to 7% and the Z score is -1.09.

Consider `CCOC[C@H]1CCCN1C(=O)c1cc(C)nc2ccccc12`, for which the “% Inhibition” value is reported as -2% and the Z score is 0.27.

Take `Cc1[nH]cnc1CNC(=O)[C@]1(c2ccccc2)CC12CCCC2`: the “% Inhibition” value is -1% and the Z score worked out at 0.16.

`Cc1cc(-c2csc(CCCNC(=O)OC(C)(C)C)n2)on1`: the “% Inhibition” value is reported as -13% and the Z score amounted to 1.26.

Take `Fc1ccc(-c2cc3c(N4CCCCCC4)nccn3n2)cc1`: the “% Inhibition” value is recorded as 33% and the Z score was -4.47.

Regarding `c1csc([C@@H]2CN(c3nccn4ccnc34)CCO2)n1`, the “% Inhibition” value is listed as -9% and the Z score is on record as 1.27.

In the case of `O=C(NCC[C@H](O)C1CC1)c1cnccn1`, the “% Inhibition” value was -23% and the Z score turned out to be 3.37.

For `Cn1nccc1CS(=O)(=O)Cc1ccc(F)c(Br)c1`, the “% Inhibition” value is on record as -2% and the Z score worked out at 0.27.

As for `COc1ccc2c(c1)CN(C(=O)COc1ccccc1)CC[C@H]1COC(=O)N21`, the “% Inhibition” value is on record as -1% and the Z score is listed as 0.13.

With `Cc1c(Cl)c(C(=O)N2[C@H]3CCNC[C@@H]2CC3)nn1C`, the “% Inhibition” value was -9% and the Z score was found to be 1.11.

Regarding `Cc1ccc(-c2ccc(=O)n(Cc3noc(C(=O)N4CCC(C)CC4)n3)n2)cc1`, the “% Inhibition” value was -12% and the Z score turned out to be 1.44.

As for `Cc1cc(C(=O)NC2(CNC(=O)OC(C)(C)C)CCCC2)on1`, the “% Inhibition” value worked out at 9% and the Z score was -1.61.

Consider `Cc1nn(-c2ccc3nnc(C)n3n2)c(C)c1CCC(=O)NCc1ccco1`, for which the “% Inhibition” value is given as -11% and the Z score came out at 1.43.

`Cc1cccc(NC(=O)c2cc(C)c3c(c2)-c2ccccc2S(=O)(=O)N3C)c1C`: the “% Inhibition” value is on record as -2% and the Z score worked out at 0.23.

`CC[C@H](C)NS(=O)(=O)c1ccc(F)cc1F`: the “% Inhibition” value is 0% and the Z score came to 0.04.

`Cc1n[nH]c(=O)c(C(=O)N(C)Cc2ccccc2)c1C`: the “% Inhibition” value is reported as -8% and the Z score is given as 1.27.

Take `OCc1ccccc1NCc1cnn(Cc2ccccc2Cl)c1`: the “% Inhibition” value came out at 12% and the Z score is on record as -1.98.

Consider `CCn1c(-c2cc(NC(=O)c3cc(F)cc(F)c3)[nH]n2)cc2ccc(OC)cc21`, for which the “% Inhibition” value worked out at 14% and the Z score is reported as -1.57.
